Results taken from PubChem BioAssay AID360 (National Center for Advancing Translational Sciences (NCATS), 2006).
The campaign covered roughly 48,000 compounds. About 550 (1.1%) were called active. Roughly 4% stayed inconclusive and do not appear here. Cut-off read from the data, not from the text of the source: active = potency below about 15 µM; inconclusive = mostly about 16 µM to 33 µM; inactive = weaker than that. The list shows a part of the results.

Each compound was assayed against Lysosomal acid glucosylceramidase (Homo sapiens) (UniProt P04062) (assay: Glucocerebrosidase). Settings: purified enzyme, resorufin glucoside fluorescence (screen aimed at inhibitors), 20 min.
Summary of the method: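 Normal human glucocerebrosidase (0.2 nM final) was assayed with resorufin β-D-glucopyranoside (30 uM final) in 50mM citric acid/KH2PO4, 10mM sodium taurocholate, 0.01% tween-20, pH 5.9. Compounds were titrated; fluorescence (Ex 548, Em 600) read after 20 min at RT.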
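Note: the screen sought inhibitors.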
Potency is the fitted concentration of half-maximal effect.

Chain of UniProt P04062 (P04062 whole entry, looked up): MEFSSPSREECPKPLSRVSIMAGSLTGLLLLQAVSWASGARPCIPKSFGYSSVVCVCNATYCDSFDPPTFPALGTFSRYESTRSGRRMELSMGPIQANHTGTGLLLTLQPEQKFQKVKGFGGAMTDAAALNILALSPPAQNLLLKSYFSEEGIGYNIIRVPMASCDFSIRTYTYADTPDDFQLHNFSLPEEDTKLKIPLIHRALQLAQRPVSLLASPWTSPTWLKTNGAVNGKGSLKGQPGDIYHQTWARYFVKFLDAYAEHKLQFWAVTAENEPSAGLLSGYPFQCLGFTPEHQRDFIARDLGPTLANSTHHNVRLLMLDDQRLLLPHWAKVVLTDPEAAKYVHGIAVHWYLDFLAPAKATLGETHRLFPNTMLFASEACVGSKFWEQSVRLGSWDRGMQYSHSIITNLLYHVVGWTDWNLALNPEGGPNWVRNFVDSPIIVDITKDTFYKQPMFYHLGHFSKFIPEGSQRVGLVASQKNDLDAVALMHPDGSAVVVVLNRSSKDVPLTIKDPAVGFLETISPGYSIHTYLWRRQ

Potency, inactive:
Cc1nnc(NCCN2CCOCC2)[nH]c1=O > 76.9 µM
COc1ccc(-c2nc3oc4cc(OC)ccc4c(=O)c3c(=O)n2Cc2ccco2)cc1 > 76.9 µM
Cc1cc2n(n1)C(c1ccccc1)Nc1ccccc1-2 (stereo not given) > 76.9 µM
CCOC(=O)N1CCN(CC(O)COC2CC(C)CC(C)(C)C2)CC1 (stereo not given) > 76.9 µM
CC(=O)OC[C@H]1O[C@@H](n2ccc(=O)[nH]c2=S)C(OC(C)=O)C1OC(C)=O (stereo not given in full) > 76.9 µM
Cc1ccc(S(=O)(=O)NC2=NCN(CCc3ccccc3)CN2)cc1 > 76.9 µM
c1ccc2sc(Cc3nnc4n3CCCCC4)nc2c1 > 76.9 µM
COc1cc2c(cc1NC(=O)c1cccnc1)CCCC2 > 76.9 µM
CSc1nc(SCC(=O)NCc2ccco2)c2c3c(sc2n1)COC(C)(C)C3 > 76.9 µM
O=C(CCCN1C(=O)c2ccccc2C1=O)NC1=NCCS1 > 76.9 µM
N#Cc1c(NC(=O)CSc2ncn[nH]2)sc2c1CCCCC2 > 76.9 µM
CCc1nnc(NC(=O)c2cccc(S(=O)(=O)N3CCc4ccccc43)c2)s1 > 76.9 µM
O=C(NCC1CCCO1)c1cc2n(n1)C(C(F)(F)F)CC(c1ccc(Br)cc1)N2 (stereo not given) > 76.9 µM
COC(=O)c1cc(Cl)c(N)cc1OC > 76.9 µM
O=C(OC(C(=O)NCC1CCCO1)c1ccccn1)c1cccs1 (stereo not given) > 76.9 µM
CCN(C(=O)c1c(-c2ccccc2)noc1C)c1ccccc1 > 76.9 µM
CCc1cc2c(C)cc(=O)oc2cc1OC(=O)C1CCCN1C(=O)OC(C)(C)C (stereo not given) > 76.9 µM
Cc1nc2ccccc2n1CCc1nc2c3ccccc3nc(SCC(=O)NCc3ccco3)n2n1 > 76.9 µM
O=C(COC(=O)c1cccs1)NC1CCCCC1 > 76.9 µM
COc1cc(NC(=O)c2ccc(COCC(F)(F)F)o2)cc(OC)c1OC > 76.9 µM
CC(=O)N=c1sc2cc(C)ccc2n1C > 76.9 µM
CCCCN1c2cc(C)c(O)cc2C(C(=O)OCC)C1C (stereo not given) > 76.9 µM
Cc1cc(NS(=O)(=O)c2ccc(NC(=O)NC3CCCCC3)cc2)no1 > 76.9 µM
O=C(CN1CCCC1)N1c2ccccc2Sc2ccccc21 > 76.9 µM
C=CCOC(=O)C(C#N)c1nc2ccccc2nc1N1CCN(c2ccccc2OC)CC1 (stereo not given) > 76.9 µM
